Experimental data as given in US20050163773A1, “Methods and pharmaceutical compositions for dopaminergic modulation of t-cell adhesion and activity” (priority 2001, published 2005).

Test system: Jurkat T-cell leukemia cells
Assay: Proliferation of Jurkat T-cell leukemia cells (CyQuant)
Assay type: cell-based, human
Conditions: 48 hours
Procedure: FIGS. 18A-C depict the proliferation of resting normal human and cultured Jurkat T-cells induced by physiological concentrations of DPAT. […] Numbers of T-cells were evaluated using the CyQuant cell proliferation assay kit (Molecular Probes), according to the manufacturer instructions. FIG. 18A represents a calibration of the CyQuant cell kit, showing the linear relationship between the fluorescent intensity and untreated human T-cell number. Note the similar maximal enhancement of T-cell proliferation with 10^−10M DPAT in purified normal human (18B) and cultured Jurkat T-cells (FIG. 18C).

Structure (SMILES): CCCN(CCC)C1CCc2ccc(O)cc2C1 (centres unmarked) [DPAT, 7-Hydroxy-DPAT]
- DPAT concentration of maximal enhancement of proliferation, Jurkat T-cells: 10^−10 M
- proliferation of Jurkat T-cell leukemia cells relative to untreated cells (DPAT 10^−8 M to 10^−10 M): up to 5 times that of untreated cells
